Test results reported in the supplement of paper PMC3724861.
The other results are listed elsewhere or left out.

Each sequence was assayed on T1, Caupolican (Caup) homeodomain DNA-binding domain (assay: PBM E-score (8-mer, recovered from the published 9-mer minima) (E-score (dimensionless, -0.5 to 0.5)); Drosophila protein; higher = stronger relative binding preference, active = 0.31 or more).
T1 sequence: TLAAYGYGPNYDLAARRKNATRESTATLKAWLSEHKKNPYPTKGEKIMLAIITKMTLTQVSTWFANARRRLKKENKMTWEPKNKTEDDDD
Procedure, shortened: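 Caup's homeodomain DNA-binding domain (residues 214-303) was produced by in vitro transcription and translation and applied at 100 nM to custom-designed protein binding microarrays. Each value is an enrichment score giving relative binding preference for a short DNA word; higher means stronger. Published 9-mer scores were the minimum of their two constituent 8-mer scores, and the 8-mer values were recovered from those minima. A cutoff of 0.31 marks candidate binding sequences.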

Row | Sequence | PBM E-score
1 | AGTAGCCG | inactive: -0.0355
2 | ACTTCCAG | inactive: -0.0947
3 | CCCGCGCC | inactive: -0.288
4 | GAACTCGC | inactive: -0.0598
5 | TCTCAACA | inactive: 0.131
6 | AGAGTAAT | inactive: 0.147
7 | TCATTGCA | ≥ 0.135
8 | AGGGACAG | inactive: -0.083
9 | ACCGCTGG | inactive: -0.154
10 | CAATGCGA | inactive: 0.023
11 | CGCCCAAC | inactive: -0.115
12 | GTTGAAGA | inactive: 0.0558
13 | CCAATGCG | inactive: -0.169
14 | ACCATTTA | inactive: 0.119
15 | CTGCGGTA | inactive: -0.0174
16 | GGGCGTAC | inactive: -0.111
17 | GAATATTA | inactive: 0.227
18 | TTACCTAA | inactive: 0.0932
19 | ACGCCCCC | inactive: -0.307
20 | CGCACGTA | inactive: -0.0343
21 | AAACCGCC | inactive: -0.0797
22 | GCTCATCC | inactive: -0.0507
23 | CCCAGCTA | inactive: -0.155
24 | TTCACAAA | inactive: 0.0789

Row | Sequence | PBM E-score
25 | CAGGGATA | inactive: 0.0273
26 | CAGACGTA | inactive: 0.0544
27 | GACCAAGA | inactive: -0.0778
28 | CATTCCCA | inactive: -0.01
29 | ACCTGGAA | ≥ 0.0703
30 | ATGCCGCA | ≥ 0.0177
31 | GAGATTGA | inactive: 0.057
32 | ATATCTGA | inactive: 0.0648
33 | ACCATAAG | inactive: -0.0172
34 | AGACGACA | inactive: 0.224
35 | ATGAGCGG | inactive: -0.0809
36 | GGCTTAAC | inactive: -0.00361
37 | ACGATTCG | inactive: 0.0118
38 | CGTGGAGA | inactive: -0.17
39 | GTTGGTAA | ≥ 0.243
40 | ACGTCCAA | inactive: -0.00328
41 | CGCTGCTA | inactive: -0.0908
42 | TCCACCGA | ≥ -0.0285
43 | AAGGGATG | inactive: 0.0206
44 | GAGGCAAC | inactive: -0.133
45 | AGAGAGTA | inactive: 0.0533
46 | TCTGGAAA | inactive: 0.0233
47 | GCTTATAC | inactive: -0.034
48 | CCCCTCGA | inactive: -0.226

Row | Sequence | PBM E-score
49 | CAATGGGC | inactive: -0.0534
50 | CCCAGGTA | inactive: 0.00868
51 | AACAGCCC | inactive: -0.0208
52 | ATCGTACG | inactive: 0.133
53 | AAACGCAC | inactive: -0.0328
54 | GAGAACTC | inactive: -0.0736
55 | CGCGATAG | inactive: -0.00178
56 | AGTGCCTC | inactive: -0.216
57 | AGGGTCTC | inactive: -0.0937
58 | CTGCATGC | inactive: 0.0327
59 | CTCCGCGC | inactive: -0.243
60 | GTTGCAAA | inactive: 0.0186
61 | AATTAATC | inactive: 0.117
62 | AATAGCCA | inactive: 0.0293
63 | GACACTAA | inactive: 0.0423
64 | AAGATCAA | inactive: 0.0657
65 | GATCTCAC | inactive: -0.0625
66 | ATCTATGC | inactive: 0.119
67 | TCTCGTCA | ≥ 0.0608
68 | CCGACTAA | inactive: 0.0369
69 | AACAACAA | active: 0.394
70 | ACTCACTG | inactive: 0.0269
71 | AAGTGTAA | inactive: 0.14
72 | CAACGGCC | inactive: -0.118

Row | Sequence | PBM E-score
73 | CACCCGTC | inactive: -0.101
74 | CAAGTGGG | inactive: -0.0243
75 | CGTGTGCA | inactive: 0.123
76 | AAACGCGC | inactive: -0.15
77 | AGCAAGGA | inactive: 0.00873
78 | ACAGGTAG | inactive: 0.125
79 | CACGAGGG | inactive: -0.195
80 | AGGACTAA | inactive: -0.0117
81 | AGATCCAC | inactive: -0.0282
82 | GAGCGGAA | ≥ -0.0166
83 | AATGTGAC | inactive: 0.0614
84 | AAAGTCAT | inactive: 0.0654
85 | AGCCATTG | inactive: -0.00821
86 | GCGTTGAC | inactive: -0.0164
87 | ACGAGGGG | inactive: -0.162
88 | CCCAATAA | inactive: -0.0565
89 | AGTCGTAC | inactive: 0.108
90 | ATCCTCGG | inactive: -0.00578
91 | TGGAGCAA | inactive: -0.00986
92 | AGAATAGC | inactive: 0.00374
93 | ACTGCGGG | inactive: -0.154
94 | ATCAGACG | inactive: 0.0106
95 | GCAGGTTA | inactive: -0.0457
96 | AAATGACT | inactive: 0.0814

Row | Sequence | PBM E-score
97 | AGGGCCCT | inactive: -0.205
98 | ATCTGCTC | inactive: 0.00661
99 | AAACACAT | inactive: 0.229
100 | TACTGCTA | inactive: 0.00036
101 | AAGATGCA | ≥ 0.0765
102 | CCGAGTCC | inactive: -0.166
103 | AATCCCAT | inactive: 0.0876
104 | CGAGATCG | inactive: -0.129
105 | GATCCCGC | inactive: -0.0627
106 | CCAGCGCC | inactive: -0.35
107 | AGACGAAA | inactive: -0.0392
108 | TAATTGAA | inactive: 0.0636
109 | ATAAATGA | inactive: 0.157
110 | CGCCTTTC | inactive: -0.134
111 | GGATACCC | inactive: -0.15
112 | CGCGTCCA | inactive: -0.199
113 | AAGCGAAT | ≥ 0.0855
114 | AACTTTAC | inactive: 0.112
115 | ATGCACCA | inactive: 0.0861
116 | AGTCTTTC | inactive: -0.076
117 | AACTACTC | inactive: 0.0777
118 | CCTCGGGA | inactive: -0.15
119 | CACTCGGC | inactive: -0.125
120 | GCTTCTCA | inactive: -0.139

Row | Sequence | PBM E-score
121 | CCGGTAGG | inactive: -0.158
122 | ACGCCTGG | inactive: -0.081
123 | GTTTTTTA | inactive: 0.104
124 | CGACCCGC | inactive: -0.237
125 | CCATATCA | inactive: 0.0253
126 | AGCTTCAT | inactive: -0.0395
127 | GTACCACA | inactive: 0.177
128 | CGGGCAAC | inactive: -0.149
129 | CATAATAG | inactive: 0.129
130 | ACGACCGC | inactive: -0.154
131 | CCCCTTGC | inactive: -0.183
132 | CAGTGGCC | inactive: -0.219
133 | CTCCTGTA | inactive: 0.0941
134 | CAAATAGC | inactive: 0.0222
135 | CGCAAACA | ≥ 0.224
136 | CTTATAAA | inactive: 0.0297
137 | TCAGAAGA | inactive: -0.0667
138 | ATGGCTGC | inactive: -0.044
139 | GTCTAGTA | inactive: 0.169
140 | CCTAATAC | inactive: 0.0815
141 | ACGGAACG | inactive: 0.00712
142 | ACTAGTTA | inactive: 0.118
143 | CATCCACG | inactive: 0.0304
144 | CAATCGTG | inactive: 0.0797
